PMC12136788
The list shows a part of the results.

B1: chr7:94537565:94537673:+|CDS|ENSG00000127995|unk|total|mutant (ssRNA)
RNA: GGGAGUUCUACAGUCCGACGAUCGAAGCCUGCCGAUGGGUCCUGUUGUCAACCUCGGCCUCCUGUUACUCUCAUACAGAAGCCCGCUGCUUGUUUUUUCACUUUAUCUAUUAUCGGAUAUUUAAUUUUUUACAUAAUUCAUCGCAACAGAGGAUUGAGCAUCA
B2: ENSG00000185219:stop:overlap|stop_codon|ENSG00000185219|stop_codon|NA|stop_codon (ssRNA)
RNA: GGGAGUUCUACAGUCCGACGAUCGAAAGACCUUCAGGUGGUCUUCGAACCUGGCUCGGCAUAUGAAAAACCAUAUUAGAGAUUAGCCUGGGACCUGACAGUGACAGUGGGGGUGGGUUCUCAGUCCCCUGCUAGAGAACCCUUCAACAGAGGAUUGAGCAUCA
B3: ENSG00000178764:stop:overlap|stop_codon|ENSG00000178764|stop_codon|NA|stop_codon (ssRNA)
RNA: GGGAGUUCUACAGUCCGACGAUCGUGUGUCGGAACUGGCUGAAUCAGACUCCGACUGCGUCCCUGCAGAGGCUGGCCAGGCCUAGACAGGGAAGUCUGUUAGAACUGCUGUGCUGAUCAACGGGACGCUCCGUCUUUGAAGAACAACAGAGGAUUGAGCAUCA
B4: chr2:223959526:223959698:+|CDS|ENSG00000135900|unk|total|mutant (ssRNA)
RNA: GGGAGUUCUACAGUCCGACGAUCCUGGGAUUACCAUGCAGAAAUACAAGCUUUUGGACAUCGGUUACAGGAAAACUUUUCCUCCGAUCUUCUCAAAACUGCAUUUGUUAACCGCUGCUAUAUUAAAAGUGAGGAGGCCAAACGCAACAGAGGAUUGAGCAUCA
B5: chr14:53043751:53043854:-|3pUTR|ENSG00000100523|unk|total|mutant (ssRNA)
RNA: GGGAGUUCUACAGUCCGACGAUCACUCCGAUUAAAUCUUGCUUUAUUUUUACUUUAAAAUCCGUCUUGCUAAGGCCUUAUGUCCGUUCAUACUUUCUUUUCAACAGUAAUCUUGUUUAUAAUCCAGUGUUUCUGUGUUUCCGGCAACAGAGGAUUGAGCAUCA
B6: chr12:103267852:103268962:-|three_prime_utr|ENSG00000179088|control|control|control (ssRNA)
RNA: GGGAGUUCUACAGUCCGACGAUCUCCUGCACCUGCCUUCUUGAAAGAAAACAAGACAUCAGAUACUUAUUCAAAUAAUGGAAUAGCUGAUCAACUGGGUCUCCACACAAAAGAGAGUUAUCCAUGAUAAAAGAACAACUUUUUCAACAGAGGAUUGAGCAUCA
B7: chr5:157463210:157463311:+|CDS|ENSG00000172548|unk|FALSE|unique (ssRNA)
RNA: GGGAGUUCUACAGUCCGACGAUCCAGGAAAGAAUCAGGCAGAACUAUGGCUUCUACAUCGGCCUGGGCCUGGCAUUCCUGUCUAGCUUCCUCAUCGGCAGCAGCGUCAUCCUCAAGAAGAAAGGCCUCUUGCGACUCGUGGCCCAACAGAGGAUUGAGCAUCA
B8: chr9:19276226:19276327:+|CDS|ENSG00000137145|unk|total|mutant (ssRNA)
RNA: GGGAGUUCUACAGUCCGACGAUCCUUUGUCGCCGCUGGUCUCACUGACACAUCUACUCUUUUGGAUCAAGAAAUAAAUCGUUCCGAUACUAAGUCAACUGGACCUAAAGCUCCAAUUACAGACAUUGCCAUUAUUAUCAAAUCCAACAGAGGAUUGAGCAUCA
B9: chr21:26917921:26924620:-|three_prime_utr|ENSG00000154736|control|control|control (ssRNA)
RNA: GGGAGUUCUACAGUCCGACGAUCAGGAUUCCUGAAGGGGCAACCCACAUAAAAGUUCGACAGUUCAAAGCCAAAGACCAGACUAGAUUCACUGCCUAUUUAGCCCUGAAAAAGAAAAACGGUGAGUACCUUAUCAAUGGAAAGCAACAGAGGAUUGAGCAUCA
B10: ENSG00000107863:be:win_2451|CDS|ENSG00000107863|bound_else_gene|NA|bound_elsewhere_windowed (ssRNA)
RNA: GGGAGUUCUACAGUCCGACGAUCUGAUAUUGCACAUAUCCCUGCCUCUGCUGUUAUAUCAGCCUCUACCUCUCAGGUCCCCUCCAUAGCAACAGUUCCUCCUUGCCUCACAACUUCAGCUCCAUUAAUUCGCCGUCAGCUCUCCAACAGAGGAUUGAGCAUCA
B11: ENSG00000107863:be:win_2651|CDS|ENSG00000107863|bound_else_gene|NA|bound_elsewhere_windowed (ssRNA)
RNA: GGGAGUUCUACAGUCCGACGAUCAGGGUCUGGAUGAUUACAGAGAAGAUGCAAAAUUGUCCUUUAAGCACGUAUCUAGUCUGAAGGGAAUCAAGAUCGCAGACAGCCAAAAGUCAUCAGAAGACUCUGGGUCCAGAAAAGAUUCAACAGAGGAUUGAGCAUCA
B12: ENSG00000107863:be:win_5251|CDS|ENSG00000107863|bound_else_gene|NA|bound_elsewhere_windowed (ssRNA)
RNA: GGGAGUUCUACAGUCCGACGAUCAGAGGCGAAUCCGAAAAACAGGAACCCACAUGGAAAACGAAAAUAGCAGAUCGGUUAAAACUGAGACCCAGAGCCCCUGCGGAUGACAUGUUUGGAGUAGGGAAUCACAAAGUGAAUGCCCAACAGAGGAUUGAGCAUCA
B13: chrX:41141081:41141111:+|CDS|ENSG00000124486|msi1_unk|total|mutant (ssRNA)
RNA: GGGAGUUCUACAGUCCGACGAUCCACUCUUCAUACAGUGAAAAAGUACUUUCUUCCAAUAACCGAAAUGGUUCCACAGUUUUCCGAAAACUUAACUGAUGAAGAACUGAAAAAAGAAGCAAAGAAUGAAGCCAAAAAUGAUGCCAACAGAGGAUUGAGCAUCA
B14: chr4:113336597:113336699:+|CDS|ENSG00000145362|unk|total|mutant (ssRNA)
RNA: GGGAGUUCUACAGUCCGACGAUCACCUAUGCACAGUGAGCUGGUUAAGAAGAUCCCCGGCAACAAAGCUACCUUCAGCCCUACCGUCACUUUGGAACCCCGAAGAAGAAAAUUCCACAAACCAAUUACCAUGACCAUUCCUGUCAACAGAGGAUUGAGCAUCA

The binders below were run against MSI1 full-length (mouse, UniProt Q61474 1-362) (assay: nsRBNS (natural sequence RNA bind-n-seq); RBNS binding buffer (assumed for nsRBNS): 25 mM Tris pH 7.5, 150 mM KCl, 3 mM MgCl2, 0.01% Triton X-100, 500 ug/ml BSA, 20 U/ml SUPERase-In, 4 C; UNK is unkempt and MSI1 is Musashi-1; names of the RNAs are library labels; protein concentration not given here; high values mean tight binding).
Sequence of UniProt Q61474 (Q61474 whole entry): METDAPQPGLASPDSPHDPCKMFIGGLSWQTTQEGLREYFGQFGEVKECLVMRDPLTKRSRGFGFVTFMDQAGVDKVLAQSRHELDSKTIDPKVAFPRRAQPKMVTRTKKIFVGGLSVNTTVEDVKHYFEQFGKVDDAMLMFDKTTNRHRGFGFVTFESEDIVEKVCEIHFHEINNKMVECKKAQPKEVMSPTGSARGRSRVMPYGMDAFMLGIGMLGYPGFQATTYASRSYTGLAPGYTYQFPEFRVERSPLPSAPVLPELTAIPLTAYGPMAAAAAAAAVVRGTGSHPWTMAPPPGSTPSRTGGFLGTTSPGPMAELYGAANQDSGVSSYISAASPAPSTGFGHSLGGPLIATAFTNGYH

Row | Binder | binding signal
1 | B1 | 1.12 enrichment R
2 | B2 | 0.421 enrichment R
3 | B3 | 2.29 enrichment R
4 | B4 | 0.304 enrichment R
5 | B5 | 2.39 enrichment R
6 | B6 | 0.277 enrichment R
7 | B7 | 0.527 enrichment R
8 | B8 | 0.315 enrichment R
9 | B9 | 0.865 enrichment R
10 | B10 | 1.25 enrichment R
11 | B11 | 0.365 enrichment R
12 | B12 | 0.537 enrichment R
13 | B13 | 0.267 enrichment R
14 | B14 | 0.614 enrichment R
